Assay results published in PubChem BioAssay AID1030 (National Center for Advancing Translational Sciences (NCATS), 2008).
Screen size: about 220,000 compounds; about 16,000 (7.3%) were called active. Inconclusive results, whose numbers are uncertain, are shown with a selection of clear calls. Calls come from the whole dose curve; as a rule, active = well fitted inhibition curve with a large enough effect (not every such curve was filed as active); inconclusive = small, poorly fitted or top-dose-only effect, or another doubt; inactive = no such curve, though single readings can be large or run the other way. Potencies of inconclusive entries are left out as doubtful fits.

Each compound was assayed against Aldehyde dehydrogenase 1A1 (Homo sapiens) (UniProt P00352) (assay: qHTS Assay for Inhibitors of Aldehyde Dehydrogenase 1 (ALDH1A1)). Settings: Purified ALDH1A1, NADH fluorescence, propionaldehyde substrate; series mostly up to 75.3 µM; activity, negative = inhibition: at the top concentration.
Potency is the fitted concentration of half-maximal effect; tags give direction and shape of the fitted curve.
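Throughout, for activity, negative = inhibition: plate controls were no enzyme wells and a reference inhibitor.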

Sequence of UniProt P00352 (P00352 whole entry, looked up): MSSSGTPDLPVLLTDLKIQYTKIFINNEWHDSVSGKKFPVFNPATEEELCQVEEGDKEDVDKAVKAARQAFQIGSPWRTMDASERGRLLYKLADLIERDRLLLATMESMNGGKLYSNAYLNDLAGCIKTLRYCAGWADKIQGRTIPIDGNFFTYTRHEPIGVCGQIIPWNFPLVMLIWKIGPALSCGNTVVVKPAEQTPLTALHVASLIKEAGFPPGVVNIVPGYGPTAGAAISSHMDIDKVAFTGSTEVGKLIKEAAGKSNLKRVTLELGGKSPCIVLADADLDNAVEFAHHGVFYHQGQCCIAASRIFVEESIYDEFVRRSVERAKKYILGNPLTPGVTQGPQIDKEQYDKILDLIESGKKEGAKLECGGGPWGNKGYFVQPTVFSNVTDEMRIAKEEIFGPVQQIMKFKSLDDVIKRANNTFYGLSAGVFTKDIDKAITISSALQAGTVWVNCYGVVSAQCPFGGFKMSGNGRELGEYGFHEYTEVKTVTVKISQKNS

Row | SMILES | Potency | activity, negative = inhibition
1 | COC(=O)c1ccc(CSc2nnc(NC(C)C)s2)cc1 | inconclusive [inhibitor, single point] | –
2 | O=C1/C(=C/c2ccc(O)c([N+](=O)[O-])c2)SC(=S)N1Cc1ccccc1 | active: 3.98 µM | –
3 | CC(C)CCNc1nc2c(c(=O)n(Cc3cccc(F)c3)c(=O)n2C)n1C | active: 12.6 µM | –
4 | CCCn1c(C)cc(C(=O)COC(=O)c2ccc[nH]c2=O)c1C | – | inactive: 0.969%
5 | O=C(NCc1ccco1)c1csc(Nc2ccccc2Cl)n1 | inconclusive [inhibitor, single point] | –
6 | CS(=O)(=O)c1ccc(S(=O)CC(=O)OCc2ccccc2)c([N+](=O)[O-])c1 (stereo not given) | active: 12.6 µM | –
7 | CC(C)OC(=O)c1ccc(NC(=O)c2ccccc2)cc1 | inconclusive [inhibitor, partial curve] | –
8 | Cc1ccc2c(c1)c1c3n2CCN(C(=O)C2CC2)C3CCC1 (stereo not given) | inconclusive [inhibitor, single point] | –
9 | O=C(CCN1C(=O)COc2ccccc21)N1CCN(c2ccccn2)CC1 | inconclusive [inhibitor, single point] | –
10 | Cc1nc2cnc(OCc3ccccc3)nc2n(C)c1=O | – | inactive: -12.4%
11 | NC(=O)c1ccc(Oc2ccc3ccc(=O)oc3c2)c([N+](=O)[O-])c1 | inconclusive [inhibitor, single point] | –
12 | CSc1nsc(SC)c1NC(=O)OC1CCCCC1 | active: 20 µM | –
13 | O=C(NNC(=S)Nc1ccccc1C(F)(F)F)c1cccnc1 | inconclusive [inhibitor, single point] | –
14 | N#Cc1c2ccc(OCC(N)=O)cc2n2ccccc12 | inconclusive [inhibitor, partial curve] | –
15 | CCOc1ccc(S(=O)(=O)Nc2nccs2)cc1 | inconclusive [inhibitor, single point] | –
16 | CCOC(=O)C1=C(c2ccccc2)NC(=S)NC1c1ccc(C)c([N+](=O)[O-])c1 (stereo not given) | active: 0.251 µM | –
17 | CCN(c1ccccc1)S(=O)(=O)c1ccc(Cl)c(NC(=O)COC(=O)c2ccc(Cl)c(N)c2)c1 | inconclusive [inhibitor, single point] | –
18 | COc1ccccc1/C=N/NC(=S)Nc1cccnc1 | – | inactive: 0.531%
19 | COc1ccc(-c2nc(C3CCCCC3)no2)cc1OC | active: 22.4 µM | –
20 | Cn1c(CNC(=O)c2ccccc2F)nnc1SCC(=O)N1CCN(c2ccccc2)CC1 | inconclusive [inhibitor, single point] | –
21 | CC(=O)N1CCCc2cc(S(=O)(=O)N(C)Cc3ccccc3)ccc21 | inconclusive [inhibitor, partial curve] | –
22 | COc1ccccc1CN(C(=O)CCl)C(C(=O)NC1CCCCC1)c1ccncc1 (stereo not given) | inconclusive [inhibitor, single point] | –
23 | CCOC(=O)c1cnc2c(C(=O)OC)cccc2c1NCc1cccnc1 | inconclusive [inhibitor, partial curve] | –
24 | COc1ccc(N2CCN(C(=O)c3ccc(CSc4ccccc4)cc3)CC2)cc1 | – | inactive: -0.423%
25 | CC(C)c1ccc(C(N)=S)cc1 | – | inactive: -13.7%

Row | SMILES | Potency | activity, negative = inhibition
26 | Cn1c(=O)cc(SCC(=O)N2CCCC2)c2ccccc21 | inconclusive [inhibitor, single point] | –
27 | C=CCn1c(C)cc(C(=O)Cn2ncc(Cl)c(Cl)c2=O)c1C | inconclusive [inhibitor, single point] | –
28 | Cc1sc(NC(=O)CCC(=O)O)c(C(N)=O)c1-c1ccccc1 | active: 12.6 µM | –
29 | O=C(/C(=C/c1ccc(Cl)cc1)c1nc2ccccc2[nH]1)c1ccccc1 | inconclusive [inhibitor, full curve, poor fit] | –
30 | Cc1cc(C)cc(OCC(=O)Nc2ccc(S(=O)(=O)Nc3ccccn3)cc2)c1 | – | inactive: -1.38%
31 | CCCc1[nH]nc2c1C(c1ccccc1OCC)C(C#N)=C(N)O2 (stereo not given) | – | inactive: -1.08%
32 | Cc1cc2cc(CN(Cc3cccs3)C(=S)NCc3ccco3)c(=O)[nH]c2cc1C | inconclusive [inhibitor, single point] | –
33 | Cn1cc(C(=O)N/N=C/c2cccc(O)c2)ccc1=O | – | inactive: 6.17%
34 | CCOC(=O)C1C(=O)NC(c2ccccc2)=NC1c1ccc(OC)cc1 (stereo not given) | inconclusive [inhibitor, partial curve] | –
35 | O=C(C=C=Nc1ccccc1)C(=O)N=C=Cc1ccccc1 | – | inactive: 3.62%
36 | CCOC(=O)c1cc(CC)sc1N1C(=O)CC(Sc2ccccc2C(=O)O)C1=O (stereo not given) | inconclusive [inhibitor, single point] | –
37 | COc1cc(/C=C(\C#N)C(=O)NCC2CCCO2)ccc1O (stereo not given) | inconclusive [inhibitor, single point] | –
38 | CN(C)S(=O)(=O)N1CCC(Oc2ccc(C(=O)NC3CCCCC3)cc2)CC1 | – | inactive: -9.14%
39 | COc1ccc(C2c3c(-c4ccccc4O)n[nH]c3C(=O)N2CCc2ccc(OC)c(OC)c2)cc1 (stereo not given) | inconclusive [inhibitor, single point] | –
40 | COc1nc(C#N)nc(N(C)C)n1 | – | inactive: 3.49%
41 | CCOC(=O)C1=NN(C(=O)Cc2ccccc2)C(O)(C(C)(C)C)C1 (stereo not given) | inconclusive [inhibitor, partial curve] | –
42 | COC(=O)c1ccc(N2CCCCC2)c(NS(=O)(=O)c2ccc(C)cc2)c1 | active: 7.94 µM | –
43 | Cc1ccc(-n2c(SCC(=O)N/N=C/C=C/c3ccccc3[N+](=O)[O-])nc3ccccc3c2=O)cc1 | inconclusive [inhibitor, full curve] | –
44 | CS(=O)(=O)Nc1nnc(Cc2ccccc2)s1 | – | inactive: -8.37%
45 | COc1ccc(-c2ccc(CCC(=O)O)n2CC(C)C)cc1 | inconclusive [inhibitor, partial curve] | –
46 | O=C(NC(NC(=S)Nc1ccccc1)C(Cl)(Cl)Cl)c1cccc(Cl)c1 (stereo not given) | inconclusive [inhibitor, single point] | –
47 | O=C(COc1cccc2cccnc12)N1CCc2ccccc2C1 | inconclusive [inhibitor, single point] | –
48 | COc1cccc(NC(=O)N(C2CCCCC2)C(C)c2cccs2)c1 (stereo not given) | – | inactive: -0.962%
49 | O=C(O)CCCC(=O)NCCCCc1ccccc1 | – | inactive: 1.95%
50 | Cc1ccc2nsnc2c1S(=O)(=O)N(Cc1ccco1)Cc1cc2cccc(C)c2[nH]c1=O | inconclusive [inhibitor, single point] | –

Row | SMILES | Potency | activity, negative = inhibition
51 | O=C(c1[nH]ncc1-c1ccccc1)C1CO1 (stereo not given) | inconclusive [inhibitor, single point] | –
52 | O=C(O)CCc1ccc(-c2ccc(Cl)cc2)n1CCC(=O)O | inconclusive [inhibitor, partial curve] | –
53 | O=C(O)C1C(C(=O)O)C(C(=O)O)C1C(=O)O (stereo not given) | – | inactive: 7.44% [at 13.5 µM]
54 | O=C(Cn1cc([N+](=O)[O-])nc1[N+](=O)[O-])N1CCN(c2ccccc2)CC1 | – | inactive: 1.65%
55 | O=c1c(CCc2ccccc2)nc2cnc(N3CCOCC3)nc2n1CCc1ccccc1 | inconclusive [inhibitor, full curve] | –
56 | Cc1cc(C)n2nc(CC#N)c(C#N)c2n1 | inconclusive [inhibitor, partial curve] | –
57 | COc1ccc(C(=O)N2N=C3CC(C)(C)OCC3C2c2ccccc2)cc1 (stereo not given) | inconclusive [inhibitor, single point] | –
58 | CCOC(=O)CN1NC2(CCC(C(C)(C)C)CC2)NC1=S (stereo not given) | inconclusive [inhibitor, single point] | –
59 | N#Cc1c(N)nc(SCc2ccncc2)c(C#N)c1-c1cccs1 | inconclusive [inhibitor, single point] | –
60 | CC(=O)Nc1ccc(C(=O)NC(CC(=O)O)c2ccc(Cl)cc2)cc1 (stereo not given) | – | inactive: -12.5%
61 | Cc1ccccc1NC(=O)C(C#N)Cc1cccnc1 (stereo not given) | – | inactive: 11.8%
62 | COc1ccc(NC(=O)CSc2nc3ccccc3c(=O)n2CCC(=O)N2CCCCC2)cc1 | active: 15.8 µM | –
63 | CCc1cc2cc(C)ccc2nc1SCC(=O)Nc1cc(C)on1 | – | inactive: 7.22%
64 | O=S(=O)(Nc1ccc2c3c(cccc13)CC2)c1ccc(F)cc1 | active: 12.6 µM | –
65 | CCN(CC)c1ccc(NS(=O)(=O)c2ccc3c(c2)oc(=O)n3C)c(C)c1 | inconclusive [inhibitor, partial curve] | –
66 | COC(=O)CC1C(=O)NCCN1C(=O)CSc1nc2ccccc2o1 (stereo not given) | inconclusive [inhibitor, partial curve, poor fit] | –
67 | CCCC(c1nnnn1C1CCCC1)N1CCN(C(=O)c2ccco2)CC1 (stereo not given) | inconclusive [inhibitor, partial curve] | –
68 | COC(=O)c1c(NC(=O)c2ccco2)sc(C)c1C | inconclusive [inhibitor, single point] | –
69 | O=C(CN(Cc1ccco1)C(=O)c1ccc(Cl)cc1)Nc1ccc(Cl)c(Cl)c1 | inconclusive [inhibitor, full curve] | –
70 | CC1CCCCC1N=CC1=C(O)CC(C)(C)CC1=O (stereo not given) | inconclusive [inhibitor, partial curve] | –
71 | Nc1cc(-c2ccco2)no1 | active: 4.47 µM | –
72 | COc1ccc(-c2nc(CS(=O)CC(=O)NCCCN3CCCC3)c(C)o2)cc1OC (stereo not given) | inconclusive [inhibitor, single point] | –
73 | COc1ccc(Nc2nnc(SCc3cc(=O)n4ccsc4n3)s2)cc1 | active: 14.1 µM | –
74 | COc1ccc(CNC(=O)C2CC(C)=C(C)CC2C(=O)O)cc1 (stereo not given) | – | inactive: 5.06%
75 | O=C1CCC(=O)N1c1cccc(-c2nc3ccccc3o2)c1 | inconclusive [inhibitor, partial curve] | –
